Measurements taken from the supplement of paper PMC10369915.
The other results are listed elsewhere or left out. Cut-off read from the data, not from the text of the source: active = 3.2 or more and inactive = the rest. Most of these values are background signal.

Assays:
Assay in all cases: enrichment score (SH2-bound / input frequency) (ratio); bacterial display of known human phosphotyrosine sites (pTyr-Var adds point mutants) read by sequencing; higher = stronger binding; tyrosines were phosphorylated by kinases first
Settings in all cases: peptide library: Human pTyr
[1] = target: SHP2 C-SH2 domain E139D
[2] = target: SHP2 C-SH2 domain wild-type
[3] = target: SHP2 N-SH2 domain L43F
[4] = target: SHP2 N-SH2 domain T42A
[5] = target: SHP2 N-SH2 domain T52S
[6] = target: SHP2 N-SH2 domain wild-type

Measured: enrichment score
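Note: displayed peptides selected on beads carrying the immobilized SH2 domain, with library peptides lacking any tyrosine serving as negative controls.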

DGPRSPSYGRSRSRS [SRSF1_HUMAN_202]
inactive: [1] 0.737 | [2] 0.829 | [3] 0.841 | [4] 0.64 | [5] 0.85 | [6] 0.507

ERSTSAGYSRSRSGS [SRSF9_HUMAN_192_YA]
inactive: [1] 0.961 | [2] 1.19 | [3] 0.951 | [4] 0.827 | [5] 0.927 | [6] 1.16

AREKLALYVYEYLLH [SSBP3_HUMAN_23]
inactive: [1] 2.57 | [2] 2.65 | [3] 2.89 | [4] 2.5 | [5] 3.01
active: [6] 3.49

KDEVFSKYATPVLAK [STA5A_HUMAN_682_YA]
active: [2] 3.72
inactive: [1] 1.32 | [3] 1.16 | [4] 0.861 | [5] 0.804 | [6] 0.977

AKPDSSFYKGLDLNG [B3AT_HUMAN_359]
inactive: [1] 0.85 | [2] 0.738 | [3] 0.935 | [4] 0.957 | [5] 1.08 | [6] 0.732

EDPMASMYAKLQNQP [STAM1_HUMAN_384_YA]
inactive: [1] 1.58 | [3] 0.676 | [4] 0.836 | [5] 0.634 | [6] 0.589
active: [2] 4.14

VLEALELYNKLVNEA [STAM2_HUMAN_361]
inactive: [1] 0.838 | [2] 0.698 | [3] 0.8 | [4] 0.594 | [5] 0.607 | [6] 0.795

DGPKGTGYIKTELIS [STAT1_HUMAN_701]
inactive: [1] 0.775 | [2] 0.73 | [3] 0.913 | [4] 0.806 | [5] 0.825 | [6] 0.849

DPGSAAPYLKTKFIC [STAT3_HUMAN_705]
inactive: [1] 1.48 | [2] 1.96 | [3] 1.03 | [4] 1.33 | [5] 1.4 | [6] 1.78

AKNLDKEYLPIGGLA [AATM_HUMAN_96]
inactive: [1] 0.682 | [2] 0.677 | [3] 0.704 | [4] 0.965 | [5] 0.924 | [6] 0.775

MQQCDSPYVVKAAGS [STK3_HUMAN_81_YA]
inactive: [1] 1.86 | [2] 1.42 | [3] 1 | [4] 0.923 | [5] 1.06 | [6] 1.32

AGVEDPEYAVTQLAQ [STML2_HUMAN_124_YA]
inactive: [1] 0.742 | [2] 0.528 | [3] 0.594 | [4] 0.904 | [5] 0.571 | [6] 0.71

DIPGPGFYNVIHQSP [STPG1_HUMAN_72]
inactive: [1] 0.698 | [2] 0.64 | [3] 0.838 | [4] 0.788 | [5] 0.78 | [6] 0.8

DAESKTSYGWIEIVG [SYG_HUMAN_453]
inactive: [1] 1.17 | [2] 1.25 | [3] 1.22 | [4] 1.19 | [5] 1.32 | [6] 1.54

KTLVMAIYDFDRFSK [SYT2_HUMAN_227]
inactive: [1] 2.76 | [2] 2.42 | [3] 2.58 | [4] 2.42 | [5] 3.15
active: [6] 3.3

EPEEDLEYFECSNVP [TACC1_HUMAN_533]
inactive: [1] 1.48 | [2] 1.46 | [3] 1.49 | [4] 1.06 | [5] 1.94 | [6] 1.66

IATDPGLYQMLPRFS [TAF6_HUMAN_253]
inactive: [1] 0.729 | [2] 0.569 | [3] 0.773 | [4] 0.68 | [5] 0.614 | [6] 0.599

GGGGMSEYIRVTEDE [TARDBP_HUMAN_4]
inactive: [1] 0.935 | [2] 0.593 | [3] 0.642 | [4] 0.738 | [5] 0.738 | [6] 0.676

KSGDRSGYSSPGSPG [TAU_HUMAN_514]
inactive: [1] 0.875 | [2] 0.69 | [3] 0.61 | [4] 0.781 | [5] 0.785 | [6] 0.66

SGARLGEYEDVSRVE [TBCB_HUMAN_98]
inactive: [1] 0.629 | [2] 0.528 | [3] 0.658 | [4] 0.658 | [5] 0.831 | [6] 0.715

VLQSLHKYQPRLHIV [TBX21_HUMAN_266]
inactive: [1] 2.85 | [2] 2.73 | [3] 2.63 | [4] 2.09 | [5] 2.57
active: [6] 3.76

EITEEQYYMMRRYES [THEMIS_HUMAN_541]
inactive: [1] 2.25 | [2] 2.03 | [3] 2.09 | [4] 2.32 | [5] 2.2 | [6] 2.6

AASGGAAYTKRYLEE [THRAP3_HUMAN_344]
inactive: [1] 0.808 | [2] 0.719 | [3] 0.857 | [4] 0.85 | [5] 0.911 | [6] 0.925

AASGGAAYTKRALEE [THRAP3_HUMAN_344_YA]
inactive: [1] 0.581 | [2] 0.592 | [3] 0.845 | [4] 0.632 | [5] 0.723 | [6] 0.733

GSHRLSIYEDWDPFR [TIAM1_HUMAN_1323]
inactive: [1] 0.872 | [2] 0.751 | [3] 0.633 | [4] 0.819 | [5] 0.898 | [6] 0.847

EPANAGKYTCQIKND [TITIN_HUMAN_8490]
inactive: [1] 1.21 | [2] 1.09 | [3] 0.816 | [4] 0.984 | [5] 1.33 | [6] 1.03

VAQGNENYAGIAARD [TLN1_HUMAN_1116]
inactive: [1] 0.744 | [2] 0.706 | [3] 0.751 | [4] 0.591 | [5] 0.629 | [6] 0.65

DQRGQSIYSTSFPQP [TMIG2_HUMAN_222]
inactive: [1] 0.657 | [2] 0.56 | [3] 0.602 | [4] 0.644 | [5] 0.565 | [6] 0.712

TKEAEESYMMAKSLM [TMTC3_HUMAN_503]
inactive: [1] 0.513 | [2] 0.575 | [3] 0.561 | [4] 0.654 | [5] 0.723 | [6] 0.652

CGAYPYAYPPMPAMV [TNIP1_HUMAN_552]
inactive: [1] 1.32 | [2] 1.25 | [3] 1.04 | [4] 1.11 | [5] 1.43 | [6] 1.55

CGAAPAAYPPMPAMV [TNIP1_HUMAN_552_YA]
inactive: [1] 1.27 | [2] 1.1 | [3] 1.14 | [4] 1.25 | [5] 1.31 | [6] 1.39

KVSSTHYYLLPERPS [TNK2_HUMAN_860]
inactive: [1] 1.59 | [2] 2.78 | [3] 1.47 | [4] 1.52 | [5] 1.47 | [6] 1.98

AIPSNTDYPGPHSFD [TP63_HUMAN_171]
inactive: [1] 0.556 | [2] 0.433 | [3] 0.607 | [4] 0.599 | [5] 0.442 | [6] 0.486

DDLEDELYAQKLKAK [TPM1_HUMAN_261_YA]
inactive: [1] 0.803 | [2] 0.66 | [3] 0.738 | [4] 0.778 | [5] 0.84 | [6] 0.947

EPMDENCYEQMKARP [TRAT1_HUMAN_79]
inactive: [1] 0.957 | [2] 0.765 | [3] 0.836 | [4] 0.769 | [5] 1.05 | [6] 1.17

DPGKNETYQAAGFSH [TRPV4_HUMAN_805_YA]
inactive: [1] 0.615 | [2] 0.781 | [3] 0.511 | [4] 0.596 | [5] 0.562 | [6] 0.747
